From the supplement of paper PMC4967469

Assays:
Assay in all cases: Viability of human cancer cell lines after 72 h of drug (GDSC screen)
[1] = compound: C[C@]1(O)C[C@@H](c2nc(-c3ccc4ccc(-c5ccccc5)nc4c3)c3c(N)nccn32)C1 [OSI-906]; conditions: top dose 2.56 µM; top dose inferred
Experimental: (§1)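 Human cancer cell lines in 384-well plates, medium with 10% serum, drug for 72 h over a 256-fold dose range (nine 2-fold or five 4-fold steps up to the top dose). Adherent lines were fixed and stained with the nucleic acid dye Syto60, suspension lines read with resazurin; signal relative to control wells, capped at 0 and 100%. One two-parameter sigmoid per drug and line, fitted in a mixed model over all curves with the slope shared within a line.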

[2] = compound: Cc1sc2c(c1C)C(c1ccc(Cl)cc1)=N[C@@H](CC(=O)OC(C)(C)C)c1nnc(C)n1-2 [JQ1]
Experimental: as §1

[3] = compound: Cc1ccc(C(=O)N(CCCN)[C@@H](c2nc3cc(Cl)ccc3c(=O)n2Cc2ccccc2)C(C)C)cc1 [SB-715992]; conditions: top dose 0.128 µM; top dose inferred
Experimental: as §1

[4] = compound: c1ccc2c(CCNc3ccc(Nc4ccncc4)cc3)c[nH]c2c1 [JNJ-26854165]; conditions: top dose 10 µM
Experimental: as §1

[5] = compound: COCC[n+]1c2c(n(Cc3cnccn3)c1C)C(=O)c1ccccc1C2=O [YM155]; conditions: top dose 5.12 µM
Experimental: as §1

[6] = compound: COC(=O)[C@H](CCSC)NC(=O)c1ccc(NC[C@@H](N)CS)cc1-c1ccccc1 [FTI-277]; conditions: top dose 1.024 µM; top dose inferred
Experimental: as §1

[7] = compound: CCOc1nc(NC(=O)Cc2cc(OC)ccc2OC)cc(N)c1C#N [JNK Inhibitor VIII]; conditions: top dose 10 µM; top dose inferred
Experimental: as §1

[8] = compound: O=C(/C=C/c1cccc(S(=O)(=O)Nc2ccccc2)c1)NO [Belinostat]; conditions: top dose 20 µM; top dose inferred
Experimental: as §1

[9] = compound: OCCCNc1cc(-c2ccnc(Nc3cccc(Cl)c3)n2)ccn1 [CGP-60474]; conditions: top dose 0.256 µM; top dose inferred
Experimental: as §1

[10] = compound: CN1CCN(c2ccc([N+](=O)[O-])c3no[n+]([O-])c23)CC1 [NSC-207895]; conditions: top dose 20 µM; top dose inferred
Experimental: as §1

[11] = compound: CC1(C)CNc2cc(NC(=O)c3cccnc3NCc3ccncc3)ccc21 [AMG-706]; conditions: top dose 2 µM; top dose inferred
Experimental: as §1

[12] = compound: CC(=O)O[C@@]12CO[C@@H]1C[C@H](O)[C@@]1(C)C(=O)[C@H](O)C3=C(C)[C@@H](OC(=O)[C@H](O)[C@@H](NC(=O)OC(C)(C)C)c4ccccc4)C[C@@](O)([C@@H](OC(=O)c4ccccc4)[C@H]21)C3(C)C [Docetaxel]; conditions: top dose 0.0125 µM
Experimental: as §1

[13] = compound: CC1=C2C[C@H]3[C@@H](CC=C4C[C@@H](O)CC[C@@]43C)[C@@H]2CC[C@]12O[C@@H]1C[C@H](C)CN[C@H]1[C@H]2C [Cyclopamine]; conditions: top dose 16 µM; top dose inferred
Experimental: as §1

[14] = top dose 1 µM, screen: GDSC drug entry 1218, top dose inferred
[15] = top dose 2.56 µM, screen: GDSC drug entry 163

Row | Cell Line | AUC [1] | pIC50 [1] | AUC [2, 14] | pIC50 [2, 14] | AUC [2, 15] | pIC50 [2, 15] | AUC [3] | pIC50 [3] | AUC [4] | pIC50 [4] | AUC [5] | pIC50 [5] | AUC [6] | pIC50 [6] | AUC [7] | pIC50 [7] | AUC [8] | pIC50 [8] | AUC [9] | pIC50 [9] | AUC [10] | pIC50 [10] | AUC [11] | pIC50 [11] | AUC [12] | pIC50 [12] | AUC [13] | pIC50 [13]
1 | LC4-1 (lymphoblastic leukaemia, suspension) | 0.968 | < 5.59 | 0.983 | < 6.00 | 0.575 | 6.58 | 0.665 | 7.61 | 0.926 | < 5.00 | 0.034 | > 7.70 | 0.948 | < 5.99 | 0.984 | < 5.00 | 0.259 | 6.63 | 0.737 | 7.08 | 0.82 | 4.88 | 0.984 | < 5.70 | 0.985 | < 7.90 | 0.943 | < 4.80
2 | SCH (stomach, adherent) | 0.988 | < 5.59 | 0.987 | < 6.00 | 0.988 | < 5.59 | 0.988 | < 6.89 | 0.948 | < 5.00 | 0.149 | 7.63 | 0.988 | < 5.99 | 0.988 | < 5.00 | 0.971 | < 4.70 | 0.797 | 6.88 | 0.82 | 4.90 | 0.988 | < 5.70 | 0.817 | 8.11 | 0.988 | < 4.80
3 | BT-474 (breast, adherent) | 0.986 | < 5.59 | 0.984 | < 6.00 | 0.944 | < 5.59 | 0.939 | < 6.89 | 0.916 | < 5.00 | 0.237 | 7.30 | 0.982 | < 5.99 | 0.985 | < 5.00 | 0.651 | 5.46 | 0.976 | < 6.59 | 0.975 | < 4.70 | 0.986 | < 5.70 | 0.902 | < 7.90 | 0.983 | < 4.80
4 | MEG-01 (chronic myeloid leukaemia, suspension) | 0.987 | < 5.59 | 0.771 | 6.44 | 0.619 | 6.48 | 0.856 | 7.03 | 0.888 | < 5.00 | 0.201 | 7.35 | 0.987 | < 5.99 | 0.988 | < 5.00 | 0.418 | 6.12 | 0.776 | 7.02 | 0.96 | < 4.70 | 0.987 | < 5.70 | 0.93 | < 7.90 | 0.986 | < 4.80
5 | BV-173 (chronic myeloid leukaemia, suspension) | 0.968 | < 5.59 | 0.735 | 6.58 | 0.916 | < 5.59 | 0.557 | 7.95 | 0.711 | 5.65 | 0.021 | > 7.70 | 0.983 | < 5.99 | 0.975 | < 5.00 | 0.269 | 6.52 | 0.726 | 7.19 | 0.605 | 5.63 | 0.976 | < 5.70 | 0.637 | 8.75 | 0.945 | < 4.80
6 | NCI-H1436 (small cell lung carcinoma, suspension) | 0.986 | < 5.59 | 0.98 | < 6.00 | 0.93 | < 5.59 | 0.702 | 7.49 | 0.983 | < 5.00 | 0.037 | > 7.70 | 0.966 | < 5.99 | 0.985 | < 5.00 | 0.491 | 5.93 | 0.839 | 6.67 | 0.776 | 5.04 | 0.964 | < 5.70 | 0.974 | < 7.90 | 0.986 | < 4.80
7 | NEC8 (testis, adherent) | 0.957 | < 5.59 | 0.989 | < 6.00 | 0.554 | 6.66 | 0.972 | < 6.89 | 0.823 | 5.32 | 0.018 | > 7.70 | 0.986 | < 5.99 | 0.932 | < 5.00 | 0.118 | 7.00 | 0.74 | 7.17 | 0.491 | 5.92 | 0.853 | 5.92 | 0.489 | 9.13 | 0.965 | < 4.80
8 | COLO-668 (small cell lung carcinoma, adherent) | 0.731 | 6.14 | 0.985 | < 6.00 | 0.866 | 5.64 | 0.856 | 6.99 | 0.933 | < 5.00 | 0.524 | 6.43 | 0.989 | < 5.99 | 0.989 | < 5.00 | 0.499 | 5.91 | 0.892 | < 6.59 | 0.988 | < 4.70 | 0.988 | < 5.70 | 0.933 | < 7.90 | 0.987 | < 4.80
9 | IMR-5 (neuroblastoma, adherent) | 0.982 | < 5.59 | 0.794 | 6.42 | 0.562 | 6.64 | 0.537 | 8.00 | 0.989 | < 5.00 | 0.05 | > 7.70 | 0.992 | < 5.99 | 0.992 | < 5.00 | 0.463 | 6.00 | 0.707 | 7.26 | 0.894 | 4.76 | 0.992 | < 5.70 | 0.947 | < 7.90 | 0.991 | < 4.80
10 | CAS-1 (glioma, adherent) | 0.906 | < 5.59 | 0.972 | < 6.00 | 0.626 | 6.39 | 0.936 | < 6.89 | 0.812 | 5.10 | 0.06 | > 7.70 | 0.96 | < 5.99 | 0.958 | < 5.00 | 0.563 | 5.70 | 0.937 | < 6.59 | 0.979 | < 4.70 | 0.978 | < 5.70 | 0.832 | 7.91 | 0.963 | < 4.80
11 | KELLY (neuroblastoma, adherent) | 0.919 | < 5.59 | 0.988 | < 6.00 | 0.751 | 6.11 | 0.72 | 7.50 | 0.853 | 5.17 | 0.177 | 7.41 | 0.985 | < 5.99 | 0.987 | < 5.00 | 0.246 | 6.60 | 0.807 | 6.93 | 0.852 | 4.88 | 0.968 | < 5.70 | 0.683 | 8.62 | 0.989 | < 4.80
12 | MFM-223 (breast, adherent) | 0.989 | < 5.59 | 0.988 | < 6.00 | 0.988 | < 5.59 | 0.983 | < 6.89 | 0.961 | < 5.00 | 0.052 | > 7.70 | 0.985 | < 5.99 | 0.98 | < 5.00 | 0.463 | 6.00 | 0.988 | < 6.59 | 0.983 | < 4.70 | 0.953 | < 5.70 | 0.764 | 8.35 | 0.989 | < 4.80
13 | RPMI-8402 (T-cell lymphoblastic leukaemia, suspension) | 0.985 | < 5.59 | 0.969 | < 6.00 | 0.801 | 5.99 | 0.405 | 8.34 | 0.863 | 5.19 | 0.023 | > 7.70 | 0.987 | < 5.99 | 0.991 | < 5.00 | 0.121 | 6.98 | 0.757 | 7.12 | 0.887 | 4.79 | 0.991 | < 5.70 | 0.931 | < 7.90 | 0.898 | 4.84
14 | A3-KAW (B-cell lymphoma, suspension) | 0.965 | < 5.59 | 0.507 | 7.19 | 0.394 | 7.06 | 0.679 | 7.65 | 0.981 | < 5.00 | 0.076 | > 7.70 | 0.978 | < 5.99 | 0.992 | < 5.00 | 0.268 | 6.49 | 0.53 | 7.72 | 0.864 | 4.92 | 0.985 | < 5.70 | 0.993 | < 7.90 | 0.944 | < 4.80
15 | HA7-RCC (kidney, adherent) | 0.824 | 5.76 | 0.903 | < 6.00 | 0.66 | 6.33 | 0.954 | < 6.89 | 0.811 | 5.22 | 0.984 | < 5.29 | 0.94 | < 5.99 | 0.963 | < 5.00 | 0.984 | < 4.70 | 0.749 | 7.04 | 0.983 | < 4.70 | 0.958 | < 5.70 | 0.872 | < 7.90 | 0.978 | < 4.80
16 | LS-1034 (large intestine, adherent) | 0.562 | 6.62 | 0.969 | < 6.00 | 0.916 | < 5.59 | 0.879 | < 6.89 | 0.949 | < 5.00 | 0.622 | 6.14 | 0.986 | < 5.99 | 0.986 | < 5.00 | 0.401 | 6.19 | 0.816 | 6.80 | 0.902 | < 4.70 | 0.986 | < 5.70 | 0.952 | < 7.90 | 0.977 | < 4.80
17 | QIMR-WIL (acute myeloid leukaemia, suspension) | 0.986 | < 5.59 | 0.862 | 6.09 | 0.7 | 6.24 | 0.614 | 7.79 | 0.885 | < 5.00 | 0.029 | > 7.70 | 0.925 | < 5.99 | 0.987 | < 5.00 | 0.161 | 6.92 | 0.679 | 7.30 | 0.76 | 5.16 | 0.987 | < 5.70 | 0.862 | 7.99 | 0.964 | < 4.80

pIC50: −log10 of the molar value. IC50 is the fitted dose that halves viability relative to control wells, and lower means more sensitive; a limit (>, <) means that the fit lies beyond the doses tested. AUC, from the same fit, is the share of area under the viability curve across the 256-fold dose range; values near 1 show little effect. For some assays here: Any top dose called inferred comes from the curve model; the source does not state it. For some assays here: Drugs with an entry number were screened twice under separate entries, and the two screens often disagree.
